Measurements from PubChem BioAssay AID588855 (National Center for Advancing Translational Sciences (NCATS), 2011).
Where “and” joins values, the source holds several entries; their conditions need not be identical. Identical values can stand only once. The campaign covered roughly 410,000 compounds. About 5,000 (1.2%) were called active. This list was built around the results that the source calls inconclusive (neither active nor inactive); the mix of calls is not that of the screen. The call rests on the fitted dose curve; in most records, active means well fitted inhibition curve with a large enough effect; inconclusive means small, poorly fitted or top-dose-only effect; inactive means no such curve, though single readings can be large or run the other way. A potency beside an inconclusive call is a rough fit, not a confirmed value.

Experiment: qHTS for Inhibitors of TGF-b; further: nearly all actives have a fitted effect of over 65% in size
Details: HepG2 CAGA-GFP TGF-b/SMAD3 reporter, GFP fluorescence, 18 h, TGF-beta stimulated, 500 pg/mL final; series mostly up to 46.1 µM; activity, negative = inhibition: at the top concentration
In short: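 GFP signal (ex488/em500-530) from TGF-beta-stimulated HEPG2 CAGA-GFP cells, 500 pg/mL final, 18 h at 37 degrees C in DMEM plus 1% FBS, normalized to unstimulated and DMSO-stimulated controls.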
On the % scale 0 is the no-effect control and ±100 the full control effect; potency means the concentration at half of the fitted maximal effect; tags describe the fitted curve by direction and shape.

| SMILES | activity, negative = inhibition | Potency |
| --- | --- | --- |
| COc1cc(OC)c2c(c1C(CCN1CCCC1)c1ccc(N(C)C)cc1)OC(=O)CC2c1ccc(N(C)C)cc1 (stereo unspecified) | inactive: 0.0953% | – |
| Cc1nn(CCC(=O)Nc2ccc(Cl)cc2)c(C)c1S(=O)(=O)N1CCCCC1 | – | inconclusive: 35.5 µM [inhibitor, single point] |
| Cc1cc(-c2ccc(C)c(S(=O)(=O)NCCCN3CCN(c4ccccc4F)CC3)c2)on1 | – | inconclusive: 8.91 µM [inhibitor, partial curve, poor fit] |
| COc1ccccc1Cn1cc(C(=O)c2ccccc2)c(=O)c2cc(OC)c(OC)cc21 | – | inconclusive: 28.2 µM [inhibitor, single point] |
| CCc1nc2c(OCCC3CCCCC3)cccn2c1N(C=O)Cc1ccccc1 | – | inconclusive: 35.5 µM [inhibitor, single point] |
| CCOc1ccc2c(c1)-c1c(ssc1=S)C(C)(C)N2 | inactive: -20.4% | – |
| CN(C)S(=O)(=O)c1cccc(NC(=O)Cc2ccc(-c3ccccc3)cc2)c1 | – | inconclusive: 31.6 µM [inhibitor, single point] |
| N#Cc1cc2nc(O)c(O)nc2cc1[N+](=O)[O-] | inactive: 11.4% | – |
| O=C(Nc1ccc(Cl)cc1Cl)c1cc(S(=O)(=O)NCc2ccc3c(c2)OCO3)ccc1F | – | inconclusive: 12.6 µM [inhibitor, single point] |
| Cc1c(C(=O)N(CC(C)C)c2c(N)n(Cc3ccccc3)c(=O)[nH]c2=O)sc2nc3n(c(=O)c12)CCC3 | inactive: -4.06% | – |
| COc1ccc(CCNC(=O)c2ccc3c(c2)nc(C)n3-c2ccc(Br)cc2)cc1OC | – | inconclusive: 35.5 µM [inhibitor, partial curve, poor fit] |
| O=C(/C=C/c1cccc([N+](=O)[O-])c1)OCC1CCCO1 (stereo unspecified) | inactive: -0.733% | – |
| Cc1ccc(S(=O)(=O)N(C)Cc2ccc(C(=O)N/N=C/c3ccc(OC(F)F)cc3)cc2)cc1 | – | inconclusive: 5.62 µM [inhibitor, single point] |
| CCn1c(SCC(=O)NCc2ccco2)nnc1C1CCCC1 | inactive: 0.0349% | – |
| CC(C)CC(=O)NC(=S)Nc1ccc(N2CCOCC2)cc1 | – | inconclusive: 15.8 µM [inhibitor, single point] |
| CSC(=S)N/N=C(\C)c1ccccc1 | – | inconclusive: 1.26 µM [inhibitor, full curve, poor fit] |
| C/C(=N\NC(=S)NC1CCCCC1)c1ccc(C)o1 | – | inconclusive: 10 µM [inhibitor, partial curve] |
| CCCNC(=O)c1ccc(N2CCC3(CC2)CC(c2cccc(Br)c2)=NO3)c(NC(=O)c2ccc(Cl)c([N+](=O)[O-])c2)c1 | – | inconclusive: 0.708 µM [inhibitor, full curve] |
| CCOC(=O)C1=CCC(c2ccc(Cl)cc2)N(S(=O)(=O)c2ccc(C)cc2)C1 (stereo unspecified) | – | inconclusive: 7.08 µM [inhibitor, full curve, poor fit] |
| Cc1ccccc1NS(=O)(=O)c1cc(C(=O)Nc2cccc(N(C)S(C)(=O)=O)c2)ccc1C | – | inconclusive: 20 µM [inhibitor, partial curve, poor fit] |
| COc1cccc2cc(C(=O)N3CCN(c4ccc(C)cc4C)CC3)c(=O)oc12 | – | inconclusive: 28.2 µM [inhibitor, single point] |

| SMILES | activity, negative = inhibition | Potency |
| --- | --- | --- |
| Cc1ccc(C(=O)N/N=C/c2cn(Cc3ccccc3)c3ccccc23)cn1 | – | active: 1.58 µM |
| O=C1C2C(C(=O)N1/N=C/c1ccc([N+](=O)[O-])o1)C1C=CC2C12CC2 (stereo unspecified) | – | inconclusive: 35.5 µM [inhibitor, single point] |
| Cc1ccc(NC2=C(NCCO)C(=O)c3ccccc3C2=O)cc1 | – | inconclusive: 35.5 µM [inhibitor, single point] |
| Cc1cccc(C)c1Nc1sc(C(=O)c2ccccc2)c(N)c1S(=O)(=O)c1ccccc1 | – | inconclusive: 3.16 µM [inhibitor, partial curve, poor fit] |
| CCOC(=O)c1c(C)[nH]c(C(=O)CSc2nnc(-c3cccs3)n2Cc2ccccc2)c1C | inactive: -14.2% | – |
| N#C/C(=N\Nc1ccccc1)C(N)=S | – | inconclusive: 0.794 µM [inhibitor, full curve] |
| O=C(N/N=C/c1ccc(-c2ccc(S(=O)(=O)Nc3ncccn3)cc2)o1)c1cc2ccccc2cc1O | – | inconclusive: 15.8 µM [inhibitor, partial curve, poor fit] |
| Cc1nn(-c2ccc(N3CCOCC3)nn2)c(C)c1CCC(=O)NCc1ccc(Cl)cc1 | – | inconclusive: 20 µM [inhibitor, single point] |
| CCS(=O)(=O)c1ncc(Cl)c(C(=O)Nc2ccc(S(=O)(=O)N(C)c3ccccc3)cc2)n1 | – | active: 2.51 µM and active: 3.55 µM |
| CCOc1ccc(C2C=C(c3ccccc3)Nc3nnnn32)cc1 (stereo unspecified) | inactive: 12.6% | – |
| NC(Cc1ccc(C(F)(F)F)cc1)c1csc(Nc2cnccn2)n1 (stereo unspecified) | – | active: 7.08 µM |
| c1ccc(-n2ncc3c(N4CCC5(CC4)OCCO5)ncnc32)cc1 | inactive: -24.4% | – |
| CC1CCCCN1CCNC(=O)c1ccc(Cn2c(SCc3ccccc3)nc3cccnc32)cc1 (stereo unspecified) | – | inconclusive: 1.12 µM [inhibitor, full curve] |
| COc1ccc2c(c1)OC[C@H]1[C@H]2N2C(=O)CN(Cc3ccccc3)C(=O)[C@@]2(C)[C@H]1c1ccccc1 | – | inconclusive: 20 µM [inhibitor, single point] |
| COc1cccc(-c2cc(=O)c3cc(NC(=O)c4ccccc4)ccc3[nH]2)c1 | – | inconclusive: 3.98 µM [inhibitor, full curve, poor fit] |
| Brc1ccc(-c2csc3[n+]2CCCCC3)cc1 | inactive: 7.71% | – |
| COc1ccc(N(C(=O)c2ccco2)C(C(=O)NC2CCCC2)c2ccc(N(C)C)cc2)cc1 (stereo unspecified) | inactive: 19.4% | – |
| CN(CC(=O)Nc1ccc(Cl)c(Cl)c1)Cc1nnc(-c2ccc(F)cc2)o1 | – | inconclusive: 35.5 µM [inhibitor, single point] |
| CCOC(=O)C1CCN(Cc2ccc(F)c(Br)c2)CC1 | inactive: 18.1% | – |
| C=Cc1ccc(CN2C(=O)N(c3ccc(C)c(C)c3)S(=O)(=O)c3ccccc32)cc1 | – | inconclusive: 22.4 µM [inhibitor, single point] |
